In paper PMC9911399, “Two distinct binding modes provide the RNA-binding protein RbFox with extraordinary sequence specificity” one finds binding signal data, which are given here for 31 molecules.

T1: RBFOX1 RRM (Homo sapiens, UniProt Q9NWB1 109-208)
T1 sequence: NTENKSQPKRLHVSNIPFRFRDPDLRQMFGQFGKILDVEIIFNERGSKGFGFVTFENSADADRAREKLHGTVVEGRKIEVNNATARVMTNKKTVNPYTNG

B1: CAGCGAU (DNA:RNA)
RNA: GGGAGACCGGAAUUCAGAUUGUCCCAGCGAUUUAAAUCCCGUCGUAGCCACCA
DNA 1: CAATCTGAATTCCGGTCTCCC
DNA 2: TGGTGGCTACGACGGGATT
B2: CGGAAUC (DNA:RNA)
RNA: B1 RNA with A26G, C28A, G29A, A30U, U31C
DNA 1: CAATCTGAATTCCGGTCTCCC
DNA 2: TGGTGGCTACGACGGGATT
B3: CUAUGAA (DNA:RNA)
RNA: B1 RNA with A26U, G27A, C28U, U31A
DNA 1: CAATCTGAATTCCGGTCTCCC
DNA 2: TGGTGGCTACGACGGGATT
B4: UUUCCUA (DNA:RNA)
RNA: B1 RNA with C25U, A26U, G27U, G29C, A30U, U31A
DNA 1: CAATCTGAATTCCGGTCTCCC
DNA 2: TGGTGGCTACGACGGGATT
B5: CACAUAA (DNA:RNA)
RNA: B1 RNA with G27C, C28A, G29U, U31A
DNA 1: CAATCTGAATTCCGGTCTCCC
DNA 2: TGGTGGCTACGACGGGATT
B6: UGAUACC (DNA:RNA)
RNA: GGGAGACCGGAAUUCAGAUUGUCCUGAUACCUUAAAUCCCGUCGUAGCCACCA
DNA 1: CAATCTGAATTCCGGTCTCCC
DNA 2: TGGTGGCTACGACGGGATT
B7: ACUUAAC (DNA:RNA)
RNA: B6 RNA with U25A, G26C, A27U, C30A
DNA 1: CAATCTGAATTCCGGTCTCCC
DNA 2: TGGTGGCTACGACGGGATT
B8: AUCACGA (DNA:RNA)
RNA: GGGAGACCGGAAUUCAGAUUGUCCAUCACGAUUAAAUCCCGUCGUAGCCACCA
DNA 1: CAATCTGAATTCCGGTCTCCC
DNA 2: TGGTGGCTACGACGGGATT
B9: AAUCACU (DNA:RNA)
RNA: B1 RNA with C25A, G27U, G29A, A30C
DNA 1: CAATCTGAATTCCGGTCTCCC
DNA 2: TGGTGGCTACGACGGGATT
B10: AUAGCAC (DNA:RNA)
RNA: B8 RNA with C27A, A28G, G30A, A31C
DNA 1: CAATCTGAATTCCGGTCTCCC
DNA 2: TGGTGGCTACGACGGGATT
B11: GCGACAC (DNA:RNA)
RNA: B8 RNA with A25G, U26C, C27G, G30A, A31C
DNA 1: CAATCTGAATTCCGGTCTCCC
DNA 2: TGGTGGCTACGACGGGATT
B12: GUCGAUG (DNA:RNA)
RNA: B8 RNA with A25G, A28G, C29A, G30U, A31G
DNA 1: CAATCTGAATTCCGGTCTCCC
DNA 2: TGGTGGCTACGACGGGATT
B13: CUUGCCC (DNA:RNA)
RNA: B8 RNA with A25C, C27U, A28G, G30C, A31C
DNA 1: CAATCTGAATTCCGGTCTCCC
DNA 2: TGGTGGCTACGACGGGATT
B14: CAGUAAC (DNA:RNA)
RNA: B1 RNA with C28U, G29A, U31C
DNA 1: CAATCTGAATTCCGGTCTCCC
DNA 2: TGGTGGCTACGACGGGATT
B15: AGGCAUA (DNA:RNA)
RNA: B8 RNA with U26G, C27G, A28C, C29A, G30U
DNA 1: CAATCTGAATTCCGGTCTCCC
DNA 2: TGGTGGCTACGACGGGATT
B16: UCGGUCA (DNA:RNA)
RNA: B6 RNA with G26C, A27G, U28G, A29U, C31A
DNA 1: CAATCTGAATTCCGGTCTCCC
DNA 2: TGGTGGCTACGACGGGATT
B17: CAUUAGA (DNA:RNA)
RNA: B8 RNA with A25C, U26A, C27U, A28U, C29A
DNA 1: CAATCTGAATTCCGGTCTCCC
DNA 2: TGGTGGCTACGACGGGATT
B18: UUGGAAC (DNA:RNA)
RNA: B6 RNA with G26U, A27G, U28G, C30A
DNA 1: CAATCTGAATTCCGGTCTCCC
DNA 2: TGGTGGCTACGACGGGATT
B19: GGAGGAU (DNA:RNA)
RNA: B1 RNA with C25G, A26G, G27A, C28G
DNA 1: CAATCTGAATTCCGGTCTCCC
DNA 2: TGGTGGCTACGACGGGATT
B20: UAACGGU (DNA:RNA)
RNA: B1 RNA with C25U, G27A, A30G
DNA 1: CAATCTGAATTCCGGTCTCCC
DNA 2: TGGTGGCTACGACGGGATT
B21: CAAUUGA (DNA:RNA)
RNA: B8 RNA with A25C, U26A, C27A, A28U, C29U
DNA 1: CAATCTGAATTCCGGTCTCCC
DNA 2: TGGTGGCTACGACGGGATT
B22: ACUGAAU (DNA:RNA)
RNA: B1 RNA with C25A, A26C, G27U, C28G, G29A
DNA 1: CAATCTGAATTCCGGTCTCCC
DNA 2: TGGTGGCTACGACGGGATT
B23: GUGCCCG (DNA:RNA)
RNA: B8 RNA with A25G, C27G, A28C, G30C, A31G
DNA 1: CAATCTGAATTCCGGTCTCCC
DNA 2: TGGTGGCTACGACGGGATT
B24: CCUAUAG (DNA:RNA)
RNA: B1 RNA with A26C, G27U, C28A, G29U, U31G
DNA 1: CAATCTGAATTCCGGTCTCCC
DNA 2: TGGTGGCTACGACGGGATT
B25: UAGAAUG (DNA:RNA)
RNA: B1 RNA with C25U, C28A, G29A, A30U, U31G
DNA 1: CAATCTGAATTCCGGTCTCCC
DNA 2: TGGTGGCTACGACGGGATT
B26: GUCCACG (DNA:RNA)
RNA: B8 RNA with A25G, A28C, C29A, G30C, A31G
DNA 1: CAATCTGAATTCCGGTCTCCC
DNA 2: TGGTGGCTACGACGGGATT
B27: AGACAGG (DNA:RNA)
RNA: B6 RNA with U25A, U28C, C30G, C31G
DNA 1: CAATCTGAATTCCGGTCTCCC
DNA 2: TGGTGGCTACGACGGGATT
B28: CUCUUCC (DNA:RNA)
RNA: B6 RNA with U25C, G26U, A27C, A29U
DNA 1: CAATCTGAATTCCGGTCTCCC
DNA 2: TGGTGGCTACGACGGGATT
B29: CUUAAGU (DNA:RNA)
RNA: B8 RNA with A25C, C27U, C29A, A31U
DNA 1: CAATCTGAATTCCGGTCTCCC
DNA 2: TGGTGGCTACGACGGGATT
B30: AUUGUAU (DNA:RNA)
RNA: B8 RNA with C27U, A28G, C29U, G30A, A31U
DNA 1: CAATCTGAATTCCGGTCTCCC
DNA 2: TGGTGGCTACGACGGGATT
B31: CUAUCAU (DNA:RNA)
RNA: B1 RNA with A26U, G27A, C28U, G29C
DNA 1: CAATCTGAATTCCGGTCTCCC
DNA 2: TGGTGGCTACGACGGGATT

Changes are numbered by the printed parent chain; changes in the protein carry UniProt numbers. The list shows a part of the results.

This test deals with T1, RBFOX1 RRM. Nature of the test: EMSA; HiTS-Eq, 1 nM pool, 10 min; buffer printed only for the single-RNA assays: 10 mM Tris pH 7.5, 150 mM NaCl, 3.4 mM EDTA, 0.001% NP-40, 30 C. The conditions noted are these: tags: His6 N-terminal (pET28a); label: 5' 32P. In outline:
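Purified RbFox RRM, wild type or mutant, was incubated for 10 min in 50 µL with 1 nM of a 5′-radiolabelled RNA pool carrying 7 randomized nucleotides, whose flanks were annealed to DNA oligonucleotides, over a series of increasing protein concentrations. Unbound RNA was resolved on 8% native PAGE, cut out, reverse-transcribed, barcoded by PCR and sequenced on an Illumina HiSeq 2500. Relative association constants were derived from changes in read counts for each RNA species versus the control reaction and normalised to the cognate motif.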
For orientation: A gel shift assay detects complexes by their altered migration in electrophoresis.
Regarding B1, the binding signal is 0.00793 KA relative to UGCAUGU.
For B2, the binding signal is 0.0233 KA relative to UGCAUGU.
Turning to B3, the binding signal is 0.0116 KA relative to UGCAUGU.
Take B4: the binding signal is 0.00575 KA relative to UGCAUGU.
The result for B5 reads 0.00134 KA relative to UGCAUGU; that for B6, 0.00699 KA relative to UGCAUGU.
Regarding B7, the binding signal is 0.00171 KA relative to UGCAUGU.
Next, B8: 0.00363 KA relative to UGCAUGU; B9: 0.00301 KA relative to UGCAUGU.
With B10, the binding signal was 0.00575 KA relative to UGCAUGU.
The result for B11 reads 0.00893 KA relative to UGCAUGU.
For B12, the binding signal is 0.0207 KA relative to UGCAUGU.
B13: the binding signal was 0.00752 KA relative to UGCAUGU.
Take B14: the binding signal was 0.00435 KA relative to UGCAUGU.
On to B15, for which the binding signal was 0.00927 KA relative to UGCAUGU.
With B16, the binding signal was 0.0103 KA relative to UGCAUGU.
Turning to B17, the binding signal was 0.00546 KA relative to UGCAUGU.
With B18, the binding signal is 0.0142 KA relative to UGCAUGU.
For the molecule B19, the binding signal was 0.0117 KA relative to UGCAUGU.
B20: the binding signal is 0.00643 KA relative to UGCAUGU.
Take B21: the binding signal is 0.00562 KA relative to UGCAUGU.
As for B22, the binding signal was 0.00885 KA relative to UGCAUGU.
Regarding B23, the binding signal was 0.0203 KA relative to UGCAUGU.
Turning to B24, the binding signal was 0.00298 KA relative to UGCAUGU.
Regarding B25, the binding signal was 0.0313 KA relative to UGCAUGU.
On to B26, for which the binding signal is 0.00706 KA relative to UGCAUGU.
Turning to B27, the binding signal is 0.0143 KA relative to UGCAUGU.
On to B28, for which the binding signal is 0.00695 KA relative to UGCAUGU.
Next, B29: 0.0108 KA relative to UGCAUGU; B30: 0.00559 KA relative to UGCAUGU; B31: 0.00202 KA relative to UGCAUGU.
